# This is one part of the list. The full chains were built here from the parent and the listed change. Inactive controls read about 0.05.
# B1: TEV protease; numbered along this chain (parent)
# chain: MGESLFKGPRDYNPISSSICHLTNESDGHTTSLYGIGFGPFIITNKHLFRRNNGTLVVQSLHGVFKVKDTTTLQQHLVDGRDMIIIRMPKDFPPFPQKLKFREPQREERICLVTTNFQTKSMSSMVSDTSCTFPSGDGIFWKHWIQTKDGQCGSPLVSTRDGFIVGIHSASNFTNTNNYFTSVPKNFMELLTNQEAQQWVSGWRLNADSVLWGGHKVFMVKPEEPFQPVKEATQL
# Variants of: B1
# Experiment: raw area under fraction-flipped curve 0-4 h after induction (AUC4h, not background-subtracted), DNA-recorder readout of cleavage of the substrate (dimensionless); higher = more cleavage of the substrate by the protease variant
# Settings: temperature: 34 °C; time window: 0-4 h after rhamnose induction
# Procedure: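 In vivo DNA recorder in E. coli TOP10(DE3) ΔrhaA at 34 °C. Each TEVp single-site mutant (parent TEVp 0) is paired with a single-site variant of the 7-mer TEVs (canonical ENLYFQ|S). The substrate sits between flexible linkers in a Bxb1-sfGFP-TEVs-SsrA fusion, so cleavage stabilises Bxb1 and speeds flipping of a recombination array, read by NGS. The value is the raw area under the fraction-flipped curve over 0-4 h after rhamnose induction (AUC4h), with ≥20 reads per time point. It is not background-subtracted; inactive controls average about 0.047.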
# 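Also: Bxb1 expression induced with 0.2% (w/v) L-rhamnose at OD600 near 0.5, cultures sampled hourly, flipped fraction per protease–substrate barcode pair counted by paired-end Illumina sequencing.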
Variant,area with substrate ENLYAQS,area with substrate ENLYDQS,area with substrate ENLYEQS,area with substrate ENLYGQS,area with substrate ENLYHQS,area with substrate ENLYIQS,area with substrate ENLYKQS,area with substrate ENLYLQS,area with substrate ENLYMQS,area with substrate ENLYNQS,area with substrate ENLYPQS,area with substrate ENLYQQS,area with substrate ENLYRQS,area with substrate ENLYSQS,area with substrate ENLYTQS,area with substrate ENLYWQS,area with substrate ENLYCQS,area with substrate ENLYVQS,area with substrate ENLYYQS
MGESLFKGPRDYNPISSSICHLTNESDGHTTSLYGIGFGPFIITNKHLFRRNNGTLVVQSLHGVFKVKDTTTLQQHLVDQRDMIIIRMPKDFPPFPQKLKFREPQREERICLVTTNFQTKSMSSMVSDTSCTFPSGDGIFWKHWIQTKDGQCGSPLVSTRDGFIVGIHSASNFTNTNNYFTSVPKNFMELLTNQEAQQWVSGWRLNADSVLWGGHKVFMVKPEEPFQPVKEATQL [G80Q],0.0726,0.0655,0.069,0.0679,0.0637,0.122,0.0689,0.0882,0.0814,0.0625,0.0744,0.0641,0.0703,0.0797,0.0691,0.0719,,,
MGESLFKGPRDYNPISSSICHLTNESDGHTTSLYGIGFGPFIITNKHPFRRNNGTLVVQSLHGVFKVKDTTTLQQHLVDGRDMIIIRMPKDFPPFPQKLKFREPQREERICLVTTNFQTKSMSSMVSDTSCTFPSGDGIFWKHWIQTKDGQCGSPLVSTRDGFIVGIHSASNFTNTNNYFTSVPKNFMELLTNQEAQQWVSGWRLNADSVLWGGHKVFMVKPEEPFQPVKEATQL [L48P],,0.0286,0.059,,0.0679,,0.0514,,,0.0626,0.0603,0.0599,0.0493,0.0352,,0.0502,0.0379,0.0658,
MGESLFKGPRDYNPISSSICHLTNESDGHTTSLYGIGFGPFIITNKHLFRRNNGTLVVQSLHGVFKVKDTTTLQQHLVDGRDMIIIRTPKDFPPFPQKLKFREPQREERICLVTTNFQTKSMSSMVSDTSCTFPSGDGIFWKHWIQTKDGQCGSPLVSTRDGFIVGIHSASNFTNTNNYFTSVPKNFMELLTNQEAQQWVSGWRLNADSVLWGGHKVFMVKPEEPFQPVKEATQL [M88T],0.0553,,,0.0642,0.0724,,0.0284,,0.0844,0.059,0.0747,0.0647,,0.0698,,0.0849,,,
MGESLFKGPRDYNPISSSICHLTNESDGHTTSLYGIGFGPFIITNKHLFRRNNGTLVVQSLHGVFKVKDTTTLQQHLVDGRDMIIIRMPKDFPPFPQKLKFREPQREERICLVTTNFQTKSMSSMVSDTSCTFPSGDGIFWKHWIQTKDGQCGSPLVSTRDGFIVGIHSASNFTNTNNYFTSKPKNFMELLTNQEAQQWVSGWRLNADSVLWGGHKVFMVKPEEPFQPVKEATQL [V183K],,0.05,0.0628,0.0331,0.0621,,0.0583,0.0458,0.0576,,0.0468,,0.0597,0.0534,,,0.0474,,
MGESLFKGPRDYNPISSSICHLTNESDGHTTSLYGIGFGPFIITNKHLFRRNNGTLVVQSLHGVFKVKDTTTLQQHLVDGRDMIIIRMPKDFPPFPQKLKFREPQGEERICLVTTNFQTKSMSSMVSDTSCTFPSGDGIFWKHWIQTKDGQCGSPLVSTRDGFIVGIHSASNFTNTNNYFTSVPKNFMELLTNQEAQQWVSGWRLNADSVLWGGHKVFMVKPEEPFQPVKEATQL [R106G],0.0865,0.0853,,,,0.128,,,0.111,0.0687,,,,0.0728,,0.0761,,0.0874,
MGESLFKGPRDYNPISSSICHLTNESDGHTTSLYGIGFGPFIITNKHLFRRNNGTLVVQSLHGVFKVKDTTTLQQHLVDGRDMIIIRMPKDFPPFTQKLKFREPQREERICLVTTNFQTKSMSSMVSDTSCTFPSGDGIFWKHWIQTKDGQCGSPLVSTRDGFIVGIHSASNFTNTNNYFTSVPKNFMELLTNQEAQQWVSGWRLNADSVLWGGHKVFMVKPEEPFQPVKEATQL [P96T],0.0621,0.0668,,0.0628,,0.0966,0.0128,,,0.0536,,,,,,,,,
MGESLFKGPRDYNPISSSICHLTNESDGHTTSLYGIGFGPFIITNKHLFRRNNGTLVVQSLHGVFKVKDTTTLQQHLVDGRDMIIIRMPKDFPPFQQKLKFREPQREERICLVTTNFQTKSMSSMVSDTSCTFPSGDGIFWKHWIQTKDGQCGSPLVSTRDGFIVGIHSASNFTNTNNYFTSVPKNFMELLTNQEAQQWVSGWRLNADSVLWGGHKVFMVKPEEPFQPVKEATQL [P96Q],0.0993,0.0631,0.0517,0.107,,,,,0.0734,,0.0616,0.0506,,0.0803,,0.0798,,,
MGESLFKGPRDYNPISSSICHLTNESDGHTTSLYGIGFGPFIITNKHLFRRNNGTLVVQSLHGVFKVKDTTTLQQHLVDGRDMIIIRMPKDFPPFHQKLKFREPQREERICLVTTNFQTKSMSSMVSDTSCTFPSGDGIFWKHWIQTKDGQCGSPLVSTRDGFIVGIHSASNFTNTNNYFTSVPKNFMELLTNQEAQQWVSGWRLNADSVLWGGHKVFMVKPEEPFQPVKEATQL [P96H],,0.0631,,0.0636,0.0567,0.0639,0.0631,0.0783,0.0695,0.0609,0.0729,0.0582,,0.0672,0.0671,0.0915,0.0698,0.121,0.0612
MGESLFKGPRDYNPISSSICHLTNESDGHTTSLYGIGFGPFIITNKHLFRRNNGTLVVQSLHGVFKVKDTTTLQQHLVDGRDMIIIRMPKDFPPFPQKLKFREPQREERICLVTTNFQTKSMSSMVSDTSCTFPSGDGIFWKHWIQTKDGQCGSPLVSTCDGFIVGIHSASNFTNTNNYFTSVPKNFMELLTNQEAQQWVSGWRLNADSVLWGGHKVFMVKPEEPFQPVKEATQL [R160C],0.0803,0.0551,0.0792,,0.0574,0.128,0.0572,0.0573,0.098,0.0782,0.0495,0.11,,0.0597,0.084,0.0902,,0.159,
MGESLFKGPRDYNPISSSICHLTNESDGHTTSLYGIGFGPFIITWKHLFRRNNGTLVVQSLHGVFKVKDTTTLQQHLVDGRDMIIIRMPKDFPPFPQKLKFREPQREERICLVTTNFQTKSMSSMVSDTSCTFPSGDGIFWKHWIQTKDGQCGSPLVSTRDGFIVGIHSASNFTNTNNYFTSVPKNFMELLTNQEAQQWVSGWRLNADSVLWGGHKVFMVKPEEPFQPVKEATQL [N45W],0.0208,0.0689,0.0721,0.0571,0.0604,0.0571,0.0603,0.061,0.055,0.0613,0.0628,0.0633,0.0666,0.0518,,0.0646,,0.0623,
MGESLFKGPRDINPISSSICHLTNESDGHTTSLYGIGFGPFIITNKHLFRRNNGTLVVQSLHGVFKVKDTTTLQQHLVDGRDMIIIRMPKDFPPFPQKLKFREPQREERICLVTTNFQTKSMSSMVSDTSCTFPSGDGIFWKHWIQTKDGQCGSPLVSTRDGFIVGIHSASNFTNTNNYFTSVPKNFMELLTNQEAQQWVSGWRLNADSVLWGGHKVFMVKPEEPFQPVKEATQL [Y12I],,0.0576,0.064,0.065,0.0691,0.0863,0.0551,,0.0938,0.0729,0.0738,0.0649,,0.0626,0.0885,0.078,0.0678,0.134,
MGESLFKGPRDYNPISSSICHLTNESDGHTTSLYGIGFGPFIITNKHLFRRNNGTLVVQSLHGVFKVKDTTTLQQHLVDGRDMIIIRMPKDFPPFPQKLKFREPQREERVCLVTTNFQTKSMSSMVSDTSCTFPSGDGIFWKHWIQTKDGQCGSPLVSTRDGFIVGIHSASNFTNTNNYFTSVPKNFMELLTNQEAQQWVSGWRLNADSVLWGGHKVFMVKPEEPFQPVKEATQL [I110V],0.0759,0.0578,0.0738,0.0856,0.0625,0.121,0.0771,0.0783,0.0854,0.0739,0.0816,,0.0636,0.0782,0.0914,0.0974,0.0807,0.106,
MGESLFKGPRDYNPISSSICHLTNESDGHTTSLYGIGFGPFIITNKHLFRRNNGTLVVQSLHGVFKVKDTTTLQQHLVDGRDMIIIRMPKDFPPFPQKLKFREPQREERICLVTTNFQTKSMSSMVSDTSCTFPSGDGIFWKHWIQTKDGQCGSPLVSTRDGFIVGIHSASNFTNTNNYFTSVPKNFMELLTNQEAQQWYSGWRLNADSVLWGGHKVFMVKPEEPFQPVKEATQL [V200Y],,0.064,0.0561,0.0453,0.0634,,0.0617,,0.0519,0.0798,,,0.066,,0.0593,,0.064,0.0677,
MGESLFKGPRDYNPISSSICHLTNESDGHTTSLYGIGFGPFIITNKHLFRRNNGTLVVQSLHGVFKVKDTTTLQQHLVDGRDMIIIRMPKDFPPFPQKLKFREPQREERICLVTTNFQTKSMSSMVSDTSCTFPSGDGIFWKHWIQTKDGQCGSPLVSTRDGFIVGIHSASNFTNTNNYFTSVPKNFMELLTNQEAQQWCSGWRLNADSVLWGGHKVFMVKPEEPFQPVKEATQL [V200C],0.0636,0.0287,0.0572,0.0438,0.0659,0.0896,0.0155,,0.0826,0.0638,0.0829,0.0781,0.0648,0.0663,0.0791,0.061,,0.127,
MGESLFKGPRDYNPISSSICHLTNESDGHTTSLYGIGFGPFIITNKHLFRRNNGVLVVQSLHGVFKVKDTTTLQQHLVDGRDMIIIRMPKDFPPFPQKLKFREPQREERICLVTTNFQTKSMSSMVSDTSCTFPSGDGIFWKHWIQTKDGQCGSPLVSTRDGFIVGIHSASNFTNTNNYFTSVPKNFMELLTNQEAQQWVSGWRLNADSVLWGGHKVFMVKPEEPFQPVKEATQL [T55V],0.0831,0.0636,0.0409,0.0606,0.0713,0.129,0.0358,0.0922,,0.0676,0.025,0.0528,0.0676,0.0718,0.0843,0.0776,,0.119,0.06
MGESLFKGPRDYNPISSSICHLTNESDGHTTSLYGIGFGPFIITNKHLFRRNNGTLVVQSLHGVFKVKDTTTLQQHLVDGRDMIIIRMPKDFPPFPQKLKFREPQREERICLVTTNFQTKSMSSMVSDTSCTFPSGDGIFWKHWIQTKDGQCGSPLVSTRDGFIVGIVSASNFTNTNNYFTSVPKNFMELLTNQEAQQWVSGWRLNADSVLWGGHKVFMVKPEEPFQPVKEATQL [H168V],,0.0638,0.0029,0.0514,0.0556,0.134,0.0275,0.0727,0.0642,0.0587,0.0626,0.0609,,0.0654,,0.0584,0.0627,,0.0573
MGESLFKGPRDYNPISSSICHLTNESDGHTTSLYGIGFGPFIITNKHLFRRNNGTLVVQSLHGVFKVKDTTTLQQHLVDGRDMIIIRMPKDFPPFPQKLKFREPQREERICLVTTNFQTKSMSSMVSDTSCTFPSGDGIFWKHWIQTKDGQCGSPLVSTRDGFIVGITSASNFTNTNNYFTSVPKNFMELLTNQEAQQWVSGWRLNADSVLWGGHKVFMVKPEEPFQPVKEATQL [H168T],0.0655,0.0653,0.062,0.0611,0.0592,0.0563,,,0.0616,0.0556,0.0644,,,0.0557,0.0581,0.0552,0.0805,0.0617,
MGESLFKGPRDYNPISSSICHLTNESDGHTQSLYGIGFGPFIITNKHLFRRNNGTLVVQSLHGVFKVKDTTTLQQHLVDGRDMIIIRMPKDFPPFPQKLKFREPQREERICLVTTNFQTKSMSSMVSDTSCTFPSGDGIFWKHWIQTKDGQCGSPLVSTRDGFIVGIHSASNFTNTNNYFTSVPKNFMELLTNQEAQQWVSGWRLNADSVLWGGHKVFMVKPEEPFQPVKEATQL [T31Q],0.0696,0.0541,0.0608,,0.0654,,,0.0612,0.0732,,0.0703,0.0838,0.0474,,,0.123,,,
